{"source": "the supplement of paper PMC3334620", "note": "In all, about 33,000 sequences were measured (“E-score (-0.5 to 0.5)”: median about -0.04, highest 2% from about 0.36 on). Some of the results follow."}
{"biological_target": "T1, Hmlalpha2 (UniProt P0CY09)", "T1 sequence": "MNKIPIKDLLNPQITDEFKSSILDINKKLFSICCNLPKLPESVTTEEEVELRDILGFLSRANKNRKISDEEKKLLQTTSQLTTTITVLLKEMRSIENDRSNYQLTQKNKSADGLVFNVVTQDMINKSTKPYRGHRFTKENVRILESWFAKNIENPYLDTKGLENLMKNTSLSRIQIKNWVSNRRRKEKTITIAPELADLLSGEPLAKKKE", "assay": "PBM E-score (8-mer binding enrichment) (E-score (-0.5 to 0.5)); higher = stronger / more preferred TF binding; most listed sequences are background and not binding sites", "conditions": "protein concentration: 200 nM; construct: GST-full length", "outline": "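Masliner-normalised scans of fluorescent anti-GST signal were the basis for scoring. That signal came from GST-tagged yeast transcription factors applied at about 100-200 nM to double-stranded universal all-10-mer Agilent arrays on fresh or once-stripped slides. Each ungapped eight-base word, pooled with its reverse complement, received an E-score from the Universal PBM Analysis Suite.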"}
{"sequence": "GTCAGGAA", "PBM E-score": 0.00561}
{"sequence": "GCGTCCAC", "PBM E-score": -0.16}
{"sequence": "AATTGGTG", "PBM E-score": -0.193}
{"sequence": "CGTATAAC", "PBM E-score": 0.251}
{"sequence": "ACGGCGTC", "PBM E-score": -0.0814}
{"sequence": "ATACTGCC", "PBM E-score": -0.166}
{"sequence": "CATTTCCA", "PBM E-score": 0.133}
{"sequence": "GCTTAAAA", "PBM E-score": 0.00493}
{"sequence": "AATGAGCG", "PBM E-score": 0.028}
{"sequence": "CGATATCC", "PBM E-score": -0.0816}
{"sequence": "ATACAAGA", "PBM E-score": 0.323}
{"sequence": "GGATCTAC", "PBM E-score": 0.0822}
{"sequence": "CGATGTAA", "PBM E-score": 0.417}
{"sequence": "AACTGACC", "PBM E-score": -0.307}
{"sequence": "GGTATGGA", "PBM E-score": -0.18}
{"sequence": "AACAACCA", "PBM E-score": 0.22}
{"sequence": "CTCCATCC", "PBM E-score": -0.1}
{"sequence": "ACGCGTAG", "PBM E-score": 0.298}
{"sequence": "CATCACGG", "PBM E-score": -0.0883}
{"sequence": "CTAAGCAC", "PBM E-score": -0.0824}
{"sequence": "GACTAGGC", "PBM E-score": -0.154}
{"sequence": "AAGGTGCT", "PBM E-score": -0.177}
{"sequence": "CCCAATGA", "PBM E-score": -0.161}
{"sequence": "TCGAAAGA", "PBM E-score": -0.0098}
{"sequence": "CTCCCTTA", "PBM E-score": -0.254}
{"sequence": "CCCATGTC", "PBM E-score": 0.161}
{"sequence": "CCATCCTA", "PBM E-score": -0.19}
{"sequence": "CGGGCCAC", "PBM E-score": -0.312}
{"sequence": "TAGAATCA", "PBM E-score": 0.0335}
{"sequence": "ATTAACCC", "PBM E-score": 0.0714}
{"sequence": "ACTAGTGA", "PBM E-score": -0.0716}
{"sequence": "CTAAATTA", "PBM E-score": 0.189}
{"sequence": "GCAGCCGC", "PBM E-score": -0.213}
{"sequence": "GGTCGCCA", "PBM E-score": -0.341}
{"sequence": "AGTAGCGC", "PBM E-score": -0.0395}
{"sequence": "GCTTGGAC", "PBM E-score": -0.267}
{"sequence": "AAAACTTG", "PBM E-score": 0.0078}
{"sequence": "GCCCAAGC", "PBM E-score": -0.248}
{"sequence": "CACGGGAC", "PBM E-score": 0.0197}
{"sequence": "AATGCGAC", "PBM E-score": 0.109}
{"sequence": "GAGACTAA", "PBM E-score": -0.166}
{"sequence": "CACCCGCG", "PBM E-score": 0.143}
{"sequence": "CGGGCAGC", "PBM E-score": -0.188}
{"sequence": "GCGGGTCA", "PBM E-score": 0.0968}
{"sequence": "AGCCGTTA", "PBM E-score": -0.0185}
{"sequence": "GCCGCGGA", "PBM E-score": -0.246}
{"sequence": "CTAGTCAG", "PBM E-score": -0.223}
{"sequence": "GGCCCTAA", "PBM E-score": -0.136}
{"sequence": "CGGATCCG", "PBM E-score": -0.145}
{"sequence": "TATAGGGA", "PBM E-score": -0.126}
{"sequence": "TATTCCCA", "PBM E-score": -0.0559}
{"sequence": "CAGAGTCA", "PBM E-score": -0.197}
{"sequence": "AGATGGTC", "PBM E-score": -0.0916}
{"sequence": "CGATCTTC", "PBM E-score": -0.257}
{"sequence": "AACTACGG", "PBM E-score": -0.155}
{"sequence": "CCCCGTTA", "PBM E-score": -0.145}
{"sequence": "AACGCTCT", "PBM E-score": -0.136}
{"sequence": "CAGCCCAG", "PBM E-score": -0.352}
{"sequence": "AGGAGGTC", "PBM E-score": -0.21}
{"sequence": "CTTACAAG", "PBM E-score": 0.312}
{"sequence": "AAATTTGA", "PBM E-score": 0.143}
{"sequence": "ACATACCT", "PBM E-score": 0.303}
{"sequence": "GCGATTCC", "PBM E-score": -0.25}
{"sequence": "GTACTGAC", "PBM E-score": -0.0294}
{"sequence": "AAATGCCG", "PBM E-score": -0.02}
{"sequence": "TCGGAGCA", "PBM E-score": -0.279}
{"sequence": "CCGAACCA", "PBM E-score": -0.278}
{"sequence": "ACCTGAGA", "PBM E-score": -0.096}
{"sequence": "AGCCCGCA", "PBM E-score": -0.0978}
{"sequence": "AATGATTC", "PBM E-score": 0.00129}
{"sequence": "CCCTCTAC", "PBM E-score": -0.09}
{"sequence": "ACCGACCC", "PBM E-score": -0.173}
{"sequence": "GAGCCCGA", "PBM E-score": -0.102}
{"sequence": "ACCGCAGT", "PBM E-score": -0.0348}
{"sequence": "AACCACTG", "PBM E-score": -0.0413}
{"sequence": "AAAAGGAC", "PBM E-score": -0.0292}
{"sequence": "GAGATTGC", "PBM E-score": -0.216}
{"sequence": "AGCGTAGC", "PBM E-score": -0.0881}
{"sequence": "AATAGCGG", "PBM E-score": -0.132}
{"sequence": "GAGTATTA", "PBM E-score": 0.213}
{"sequence": "GCAGAGTA", "PBM E-score": 0.154}
{"sequence": "CTCCGCCC", "PBM E-score": -0.264}
{"sequence": "CCTTCGTC", "PBM E-score": -0.0859}
{"sequence": "CAAACGGC", "PBM E-score": -0.304}
{"sequence": "CCTGTGAC", "PBM E-score": 0.0291}
{"sequence": "ATTGAAGG", "PBM E-score": 0.0709}
{"sequence": "CCGGCATC", "PBM E-score": -0.271}
{"sequence": "AAGCTGAC", "PBM E-score": -0.0181}
{"sequence": "CTATAGTC", "PBM E-score": 0.0177}
{"sequence": "CAACACCG", "PBM E-score": 0.0242}
{"sequence": "AACCGTAT", "PBM E-score": -0.112}
{"sequence": "ATTCCTCG", "PBM E-score": 0.0272}
{"sequence": "AAGAGTAA", "PBM E-score": 0.277}
{"sequence": "ACTTACAA", "PBM E-score": 0.29}
{"sequence": "CGTAATCA", "PBM E-score": 0.367}
{"sequence": "AGTGTCTA", "PBM E-score": 0.14}
{"sequence": "CCGCCCCA", "PBM E-score": -0.0198}
{"sequence": "ACTCCCCA", "PBM E-score": 0.0124}
{"sequence": "CTTACTCC", "PBM E-score": -0.0246}
{"sequence": "GTGGCAAC", "PBM E-score": 0.0116}
{"sequence": "ATGGGTAA", "PBM E-score": 0.117}
{"sequence": "CCCTATGC", "PBM E-score": -0.258}
{"sequence": "AGAAAGCG", "PBM E-score": -0.00586}
{"sequence": "ACTTCGGA", "PBM E-score": 0.0225}
{"sequence": "AGGCGACT", "PBM E-score": -0.26}
{"sequence": "CCTAAGGA", "PBM E-score": -0.22}
{"sequence": "CTGGTCAA", "PBM E-score": -0.0353}
{"sequence": "CTAGACCA", "PBM E-score": -0.262}
{"sequence": "CGGCCTGA", "PBM E-score": -0.338}
{"sequence": "AAGCGGCC", "PBM E-score": -0.194}
